In the supplement of paper PMC10441789:
The other results are listed elsewhere or left out. Antibody binding of pooled human sera (four to six donors per pool; dilution not stated) to peptides of the Trypanosoma cruzi antigen TSSA on microarrays. Quantile-normalised fluorescence in arbitrary units, mean of duplicate arrays; higher = more binding. No active / inactive call. The uninfected pools are read here as the healthy donors of the same country. The strongest signals lie near the top of the scale (about 60,000).

Tested on: pooled sera of chronic Chagas disease patients, Argentina
Assay: antibody binding signal (normalised fluorescence) (arbitrary fluorescence units); higher = stronger serum antibody binding to peptide
Description: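 Microarray of 15-residue peptides over residues 30-55 of Trypanosoma cruzi TSSAII, each with 1 to 10 substitutions at naturally variable positions, probed with one serum pool per country.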

Row | Sequence | antibody binding signal
1 | GTDNKTATGEAPSPS | 13600
2 | GKDNKPAAGGTPSQP | 374
3 | PPSGKEKKAAAGEAP | 1520
4 | GKDNKTATGETPSPP | 3000
5 | GKENKAAAGETPSPP | 4640
6 | TPPSGTENKAAAGGT | 53600
7 | SGTDNKTATGGAPSQ | 905
8 | SGTEKKPAAGEAPSP | 4350
9 | PPSGKENKAATGEAP | 27200
10 | KENKTATGGAPSPSG | 373
11 | STPPSGTEKKPATGG | 50500
12 | PPSGKEKKPAAGGAP | 1540
13 | EKKPAAGGAPSPSGA | 1470
14 | PSGKEKKPAAGGTPS | 6860
15 | SGKEKKPATGEAPSP | 46400
16 | GKENKAATGGAPSQS | 4030
17 | GKDNKPATGEAPSQS | 43600
18 | KDKKTATGEAPSQPG | 4550
19 | GTDNKAAAGGTPSQP | 331
20 | ENKPAAGGAPSPPGA | 418

Row | Sequence | antibody binding signal
21 | KKPAAGETPSPPGAS | 177
22 | KPATGGAPSPPGASS | 869
23 | SGTEKKTAAGEAPSQ | 556
24 | TDNKAATGETPSQSG | 3190
25 | GTDNKAATGGTPSQP | 419
26 | GTDNKAATGGAPSPP | 603
27 | SGTENKAAAGGAPSP | 39000
28 | PPSGKENKPATGETP | 38400
29 | GTEKKAAAGGAPSQS | 361
30 | KDKKPATGETPSPSG | 25100
31 | SGTDNKTATGEAPSP | 13100
32 | PSGTENKPAAGEAPS | 50300
33 | TDNKTATGGTPSQPG | 403
34 | GTEKKPAAGGTPSPP | 515
35 | KKAATGEAPSQSGAS | 4390
36 | KDNKPATGEAPSPPG | 45000
37 | PSGTDKKAATGGAPS | 2890
38 | NKAATGGTPSPPGAS | 401
39 | GKDNKAAAGGAPSPP | 338
40 | DKKTATGEAPSQSGA | 11200
